# Source: PubChem BioAssay AID504332 (National Center for Advancing Translational Sciences (NCATS), 2011)
# “And” between values parts separate entries of the source, which are not always exact repeats. Equal entries are not always repeated. Screen size: about 350,000 compounds; about 31,000 (8.9%) were called active. The inconclusive results got no clear call from the source; some entries with a clear call stand among them for comparison. The call rests on the fitted dose curve; in most records, active means well fitted inhibition curve with a large enough effect; inconclusive means small, poorly fitted or top-dose-only effect; inactive means no such curve, though single readings can be large or run the other way. Potencies beside an inconclusive call are fits to weak or partial responses and may not hold up.
# Target: Histone-lysine N-methyltransferase EHMT2 (Homo sapiens) (UniProt Q96KQ7)
# UniProt Q96KQ7, sequence (Q96KQ7 whole entry, looked up): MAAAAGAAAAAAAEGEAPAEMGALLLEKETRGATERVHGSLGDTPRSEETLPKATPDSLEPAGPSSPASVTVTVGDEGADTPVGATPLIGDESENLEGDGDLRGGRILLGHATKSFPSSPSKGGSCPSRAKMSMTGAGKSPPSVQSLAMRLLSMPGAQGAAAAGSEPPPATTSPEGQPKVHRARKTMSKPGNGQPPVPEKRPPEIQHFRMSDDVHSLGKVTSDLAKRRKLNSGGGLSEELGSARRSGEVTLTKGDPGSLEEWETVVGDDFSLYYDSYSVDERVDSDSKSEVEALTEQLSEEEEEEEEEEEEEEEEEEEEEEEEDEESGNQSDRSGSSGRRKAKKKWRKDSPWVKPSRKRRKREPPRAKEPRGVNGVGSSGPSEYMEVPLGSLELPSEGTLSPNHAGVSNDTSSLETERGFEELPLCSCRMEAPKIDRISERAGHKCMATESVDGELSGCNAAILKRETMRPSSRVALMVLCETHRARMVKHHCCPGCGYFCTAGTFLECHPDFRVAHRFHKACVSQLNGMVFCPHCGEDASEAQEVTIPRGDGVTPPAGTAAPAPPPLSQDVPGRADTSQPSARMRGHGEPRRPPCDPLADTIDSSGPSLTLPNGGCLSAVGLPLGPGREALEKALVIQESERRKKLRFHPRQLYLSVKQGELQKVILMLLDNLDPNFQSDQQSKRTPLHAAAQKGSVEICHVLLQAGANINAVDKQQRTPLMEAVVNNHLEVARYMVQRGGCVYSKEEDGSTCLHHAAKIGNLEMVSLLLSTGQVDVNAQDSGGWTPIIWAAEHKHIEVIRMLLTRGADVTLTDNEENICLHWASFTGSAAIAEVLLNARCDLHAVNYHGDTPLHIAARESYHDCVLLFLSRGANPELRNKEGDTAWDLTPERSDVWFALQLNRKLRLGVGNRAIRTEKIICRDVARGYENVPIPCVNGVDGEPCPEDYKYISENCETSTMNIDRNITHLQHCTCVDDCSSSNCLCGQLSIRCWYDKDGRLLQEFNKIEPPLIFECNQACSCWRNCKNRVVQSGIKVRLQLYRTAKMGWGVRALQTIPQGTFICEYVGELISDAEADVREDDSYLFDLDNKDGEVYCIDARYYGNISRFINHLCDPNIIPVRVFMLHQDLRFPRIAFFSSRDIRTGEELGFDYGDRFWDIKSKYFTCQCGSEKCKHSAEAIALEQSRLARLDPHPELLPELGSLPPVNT
# Assay: qHTS Assay for Inhibitors of Histone Lysine Methyltransferase G9a; further: nearly all actives have a fitted effect of over 75% in size
# Conditions: G9a H3K9 monomethylation, AlphaScreen, 2 h; activity, negative = inhibition: at 59 µM (top of the series) unless noted
# How it was run: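 Methyltransferase reactions run at room temperature for 2 h (20 nM enzyme, 500 nM biotin-H3K9 peptide, 20 uM SAM) after a 15 min compound preincubation; product detected by AlphaScreen beads and anti-H3K9me1 antibody.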
# On the % scale 0 is the no-effect control and ±100 the full control effect; potency means the concentration at half of the fitted maximal effect; tags describe the fitted curve by direction and shape.
Structure (SMILES),"activity, negative = inhibition",Potency
O=C(OCc1ccc([N+](=O)[O-])cc1)c1ccc2ccccc2n1,inconclusive: -56.8% [inhibitor],
CCOC(=O)c1cnc(SC2CC(=O)N(c3cccc(OC)c3)C2=O)nc1N (centres undefined),,active: 35.5 µM
COc1ccccc1NC(=O)CCn1c(=O)c2cccn2c2ccccc21,,inactive
Cc1ccc(CSc2nc3ccc(NC(=O)COc4ccccc4)cc3s2)cc1,,inactive
CC(C)(C)n1nc2c(c1NC(=O)COc1ccc3ccccc3c1)CS(=O)C2 (centres undefined),,"inconclusive: 100 µM [inhibitor, single point]"
COc1ccccc1N1CCN(C(=O)c2ccc3[nH]c4c(c3c2)CCCC4)CC1,,"inconclusive: 39.8 µM [inhibitor, single point]"
O=c1nccc(N/N=C/c2ccccc2O)[nH]1,,inactive
CCc1ccc(NC(=O)CS(=O)CC(=O)Nc2ccc(-n3cnnn3)c(C)c2)cc1 (centres undefined),,"inconclusive: 89.1 µM [inhibitor, single point]"
CC(C)C(=O)NC(c1ccc([N+](=O)[O-])cc1)c1c(O)ccc2ccccc12 (centres undefined),inconclusive: -70.8% [inhibitor],
C=CCN(c1cccc(C(F)(F)F)c1)S(=O)(=O)c1cccc(C(=O)OCC(=O)NC)c1,,"inconclusive: 89.1 µM [inhibitor, single point]"
COc1ccc(OC)c(CNC(=O)c2cc3c(-c4ccc(OC)c(OC)c4)nn(C)c3s2)c1,,"inconclusive: 10 µM [inhibitor, partial curve, poor fit]"
Cc1cc(C(=O)Nc2nc3c(s2)CCCC3)cs1,,"inconclusive: 79.4 µM [inhibitor, single point]"
Cc1ccc2c(c1)-c1c(ssc1=S)C(C)(C)N2C(=O)c1ccco1,,active: 2 µM
O=C(O)c1cc(S(=O)(=O)Nc2ccc3cn[nH]c3c2)ccc1O,,"inconclusive: 7.94 µM [inhibitor, single point]"
Cc1c(-c2csc(N)n2)c2ccccc2n1C,,"inconclusive: 79.4 µM [inhibitor, partial curve, poor fit]"
Cc1cccc(-n2ncc(C(=O)N3CCN(c4ccc(Cl)cc4)CC3)c2C2CCN(C(=O)OC(C)(C)C)CC2)c1,,inactive
Cc1cc(OC(=O)c2cccc(F)c2)c([N+](=O)[O-])c(=O)[nH]1,,"inconclusive: 89.1 µM [inhibitor, single point]"
O=C(CN1C(=O)c2ccc([N+](=O)[O-])cc2C1=O)NCC1CCCO1 (centres undefined),,"inconclusive: 79.4 µM [inhibitor, partial curve, poor fit]"
COc1cc(OC)cc(-c2n[nH]c(=S)n2-c2ccc3c(c2)OCO3)c1,,active: 1.78 µM
Cc1ccc(OCc2nc(-c3ccc(C(=O)N4CCN(c5ccccc5F)CC4)cc3)oc2C)cc1,,"inconclusive: 4.47 µM [inhibitor, full curve, poor fit]"
Cc1ccc(C)c(NC(=O)CN2CCCN(Cc3cccc(Cl)c3)S2(=O)=O)c1,,inactive
O=c1cc(-c2ccccc2Cl)oc2c(NS(=O)(=O)c3cccc4nsnc34)ccc(O)c12,inconclusive: -63.7% [inhibitor],
Cc1ccc(C)c(OCC(=O)NCCNC(=O)COc2cc(C)ccc2C)c1,,"inconclusive: 7.08 µM [inhibitor, full curve, poor fit]"

Structure (SMILES),"activity, negative = inhibition",Potency
Cc1nn(CC(=O)NCc2cccs2)c(=O)c2nn(-c3ccccc3)c(C)c12,,inactive
Cc1ccc2nc(-c3ccncc3)c(NC3CCCCC3)n2c1,,inactive
CCCCCn1c(=O)[nH]c2cc(C(=O)Nc3cc(C)cc(C)c3)ccc2c1=O,,inactive
COc1ccc(N2CCN(C(=O)Cc3ccc(OC)c(OC)c3)CC2)cc1,,inactive
CCOC(=O)C1CCN(S(=O)(=O)c2c(C(=O)N3CCCCC3)c(C)n(C)c2C)CC1,,inactive
CCCCn1c(-c2ccccc2C)nc2cc3[nH]c(=O)c(C(C)C)nc3cc21,,"inconclusive: 79.4 µM [inhibitor, single point]"
COC(=O)c1ccc(C(=O)OC)c(NC(=S)N2CCCC(CO)C2)c1 (centres undefined),,"inconclusive: 79.4 µM [inhibitor, partial curve, poor fit]"
Cc1ccccc1Cn1c(CN2CCN(C(=O)c3ccco3)CC2)nc2c1c(=O)n(C)c(=O)n2C,,"inconclusive: 79.4 µM [inhibitor, partial curve, poor fit]"
COc1ccc(N2C(=O)CC(Sc3nc4c(cc3C#N)CCC4)C2=O)cc1 (centres undefined),,"inconclusive: 50.1 µM [inhibitor, partial curve]"
O=C(CC(c1ccccc1)(c1ccccc1)c1ccccc1)N[C@@H](Cc1ccccc1)C(=O)O,,inactive
CCCCn1c(N)c(N(CC(C)C)C(=O)C2CC(=O)N(c3ccc(C)cc3)C2)c(=O)[nH]c1=O (centres undefined),,"inconclusive: 89.1 µM [inhibitor, partial curve, poor fit]"
Cc1csc(CN(C)C(=O)CC2C(=O)NCCN2Cc2ccc(F)cc2Cl)n1 (centres undefined),,active: 22.4 µM
CCCc1cc(C(N)=O)c(NC(=O)C2CCCO2)s1 (centres undefined),,"inconclusive: 3.16 µM [inhibitor, partial curve, poor fit]"
Cc1ccccc1OCCn1c(=S)[nH]c2c(N)ncnc21,,active: 1.78 µM
CCOCC(=O)NCc1ccc2c(c1)cc(C)n2C,,active: 35.5 µM
CC1=CC2=NC(=O)/C(=C\c3cccn3CCOc3ccccc3C)C(=N)N2O1,,inactive
CCOC(=O)c1c(C)n(-c2ccc(C)cc2)c2c(C(C(C)=O)C(=O)O)c(Br)c(O)c(O)c12 (centres undefined),inconclusive: -103% [inhibitor],
COc1ccc2[nH]c(C(=O)O)c(NS(=O)(=O)c3ccc(Cl)s3)c2c1,,"inconclusive: 50.1 µM [inhibitor, partial curve]"
O=C(c1cccc(NS(=O)(=O)c2ccccc2)c1)N1CCCC1,,"inconclusive: 100 µM [inhibitor, partial curve, poor fit]"
COc1c(Cl)cccc1-c1cn2ccc(C)cc2n1,,"inconclusive: 25.1 µM [inhibitor, partial curve, poor fit]"
COC(=O)c1ccc(OCC2c3cc(OC)c(OC)cc3CCN2C(=O)Cc2ccc(OC)cc2)cc1 (centres undefined),,"inconclusive: 8.91 µM [inhibitor, partial curve, poor fit]"
COc1cccc(NS(=O)(=O)c2ccc(NC(C)=O)cc2)c1,,inactive
NC(=O)C(c1ccc(Cl)cc1)c1ccc(Sc2ccccc2)nn1 (centres undefined),,"inconclusive: 56.2 µM [inhibitor, partial curve]"

Structure (SMILES),"activity, negative = inhibition",Potency
C=CCn1c(NC(=O)c2ccc(C)cc2)c(C#N)sc1=N,,"inconclusive: 28.2 µM [inhibitor, single point]"
CC1CC(C)(C)NC(=S)N1CCCC(=O)N1CCN(c2ccccc2F)CC1 (centres undefined),,inactive
COc1ccc(Cl)cc1NC(=O)CC1CCCC1,,inactive
COc1ccc(NC(=O)CSc2nc(NS(=O)(=O)c3ccc(C)cc3)cc(=O)[nH]2)cc1,,"inconclusive: 22.4 µM [inhibitor, single point]"
O=C(Nc1ccc(-n2ccc(C(F)(F)F)n2)cc1)Nc1cccc(Cl)c1,,inactive
CSc1nnc2c(n1)OC(c1cccn1C)N(C(C)=O)c1ccccc1-2 (centres undefined),,"inconclusive: 56.2 µM [inhibitor, partial curve, poor fit]"
Cc1cccc(OC(=O)CSc2nnc(CNC(=O)c3ccccc3)o2)c1C,,inactive
Cc1cccc(-n2c(=S)[nH]c3sc4c(c3c2=O)CCc2ccccc2-4)c1,,"inconclusive: 3.55 µM [inhibitor, partial curve, poor fit]"
N#CC(=C=[N-])c1nc2ccccc2nc1-[n+]1ccccc1,,"inconclusive: 7.94 µM [inhibitor, single point] and inconclusive: 22.4 µM [inhibitor, full curve, poor fit]"
O=C1CC[C@@H](CN(Cc2ccccc2)Cc2cn[nH]c2-c2cc3ccccc3o2)N1,,inactive
N#Cc1c(-c2ccccc2)c(-c2ccccc2)nn(CC(=O)NNC(=O)Nc2ccc(Cl)c(Cl)c2)c1=O,inconclusive: -71.4% [inhibitor],
COc1ccc(-c2cn3c(n2)sc2cc(C(=O)Nc4ccc(C)c(C)c4)ccc23)cc1,,inactive
CC(=O)N1CCN(C(=S)NC(=O)c2c(-c3ccccc3Cl)noc2C)CC1,,"inconclusive: 89.1 µM [inhibitor, single point]"
COc1cc(OC)c(OC)cc1/C=C/c1nc2cc3ccccc3cc2c(=O)n1-c1ccc(F)cc1F,,"inconclusive: 11.2 µM [inhibitor, partial curve]"
C=CCOc1ccc(C(c2c(C)n(C)n(-c3ccccc3)c2=O)c2c(C)n(C)n(-c3ccccc3)c2=O)cc1,,"inconclusive: 89.1 µM [inhibitor, single point]"
CC(=O)N1CCc2c(sc(NC(=O)Cc3ccc(C)cc3C)c2C#N)C1,,inactive
COc1cccc(NC(=O)CSC2=Nc3ccccc3C3=NC(CC(=O)NC4CCCCC4)C(=O)N23)c1 (centres undefined),,inactive
COc1cc(CN(C)CCc2ccccn2)cc(OC)c1OC,,"inconclusive: 4.47 µM [inhibitor, partial curve, poor fit]"
CCc1nnc(SCc2cc(C)ccc2C)c2cc3sc(C)cc3n12,,active: 10 µM
CC1=NN(c2ccccc2)C(=O)/C1=C\N1CC(C)OC(C)C1 (centres undefined),,active: 79.4 µM
Cc1ccc(S(=O)(=O)/N=C2/C=C(C3C(=O)CC(C)(C)CC3=O)C(=O)c3ccccc32)cc1,,active: 8.91 µM
CC(C)(C)c1ccc(C(=O)NCC(c2cccs2)S(=O)(=O)c2ccccc2)cc1 (centres undefined),,inactive
O=C(COc1ccc([N+](=O)[O-])cc1)Nc1ccc(NC(=O)c2ccccc2)cc1,,"inconclusive: 25.1 µM [inhibitor, partial curve, poor fit]"
